# The list shows a part of the results.
# B1: SEX4 (Arabidopsis thaliana), Q944A8 (protein)
# chain: TQAMGAVLTYRHELGMNYNFIRPDLIVGSCLQTPEDVDKLRKIGVKTIFCLQQDPDLEYFGVDISSIQAYAKKYSDIQHIRCEIRDFDAFDLRMRLPAVVGTLYKAVKRNGGVTYVHCTAGMGRAPAVALTYMFWVQGYKLMEAHKLLMSKRSCFPKLDAIRNATIDILTGLKRKTVTLTLKDKGFSRVEISGLDIGWGQRIPLTLGKGTGFWILKRELPEGQFEYKYIIDGEWTHNEAEPFIGPNKDGHTNNYAKVVDDPTSVDGTTRERLSSEDPELLEEERSKLIQFLETCSEAEV
# How the values were obtained:
# Assay in all cases: glycan array binding signal (z-score within array); higher = stronger binding
# Conditions in all cases: glycan notation: IUPAC condensed, linker removed
# [1] = molecular target: Neu5Ac(a2-3)Gal(b1-4)[Fuc(a1-3)]GlcNAc(b1-3)Gal(b1-4)GlcNAc
# Summary of the method: (§1)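 The binding signal is a Z-score computed within each array. Data were drawn from 3228 arrays in the Consortium for Functional Glycomics database, restricted to those with a known protein sequence. Scores were averaged over arrays of the same protein sequence at different concentrations or buffers, and over linkers, and negative values can be taken as non-binding.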
# [2] = molecular target: Neu5Ac(a2-3)Gal(b1-4)[Fuc(a1-3)]GlcNAc(b1-3)Gal(b1-4)[Fuc(a1-3)]GlcNAc(b1-3)Gal(b1-4)[Fuc(a1-3)]GlcNAc
# Summary of the method: as §1
# [3] = molecular target: Neu5Ac(a2-3)Gal(b1-4)[Fuc(a1-3)]GlcNAc(b1-3)GalNAc
# Summary of the method: as §1
# [4] = molecular target: Neu5Ac(a2-3)Gal(b1-4)[Fuc(a1-3)]GlcNAc(b1-6)[Gal(b1-3)]GalNAc
# Summary of the method: as §1
# [5] = molecular target: Neu5Ac(a2-3)Gal(b1-4)[Fuc(a1-3)]GlcNAc(b1-6)[Neu5Ac(a2-3)Gal(b1-3)]GalNAc
# Summary of the method: as §1
# [6] = molecular target: Neu5Ac(a2-3)Gal(b1-4)[Fuc(a1-3)]GlcNAc6S
# Summary of the method: as §1
# [7] = molecular target: Neu5Ac(a2-3)Gal6S(b1-4)GlcNAc
# Summary of the method: as §1
# [8] = molecular target: Neu5Ac(a2-3)Gal6S(b1-4)[Fuc(a1-3)]GlcNAc
# Summary of the method: as §1
# Neu5Ac(a2-3)GalNAc = molecular target: Neu5Ac(a2-3)GalNAc
# Summary of the method: as §1
# [9] = molecular target: Neu5Ac(a2-3)GalNAc(b1-4)GlcNAc
# Summary of the method: as §1
# [10] = molecular target: Neu5Ac(a2-3)[GalNAc(b1-4)]Gal(b1-4)Glc
# Summary of the method: as §1
# [11] = molecular target: Neu5Ac(a2-3)[GalNAc(b1-4)]Gal(b1-4)GlcNAc
# Summary of the method: as §1
# [12] = molecular target: Neu5Ac(a2-3)[GalNAc(b1-4)]Gal(b1-4)GlcNAc(b1-3)GalNAc
# Summary of the method: as §1
# [13] = molecular target: Neu5Ac(a2-3)[Neu5Ac(a2-6)]GalNAc
# Summary of the method: as §1
# Neu5Ac(a2-6)Gal = molecular target: Neu5Ac(a2-6)Gal
# Summary of the method: as §1
# [14] = molecular target: Neu5Ac(a2-6)Gal(b1-3)GlcNAc(b1-3)[Gal(b1-4)GlcNAc(b1-6)]Gal(b1-4)Glc
# Summary of the method: as §1
# Neu5Ac(a2-6)Gal(b1-4)Glc = molecular target: Neu5Ac(a2-6)Gal(b1-4)Glc
# Summary of the method: as §1
# [15] = molecular target: Neu5Ac(a2-6)Gal(b1-4)GlcNAc
# Summary of the method: as §1
# [16] = molecular target: Neu5Ac(a2-6)Gal(b1-4)GlcNAc(b1-2)Man(a1-3)Man(b1-4)GlcNAc(b1-4)GlcNAc
# Summary of the method: as §1
# [17] = molecular target: Neu5Ac(a2-6)Gal(b1-4)GlcNAc(b1-2)Man(a1-3)[Gal(b1-4)GlcNAc(b1-2)Man(a1-6)]Man(b1-4)GlcNAc(b1-4)GlcNAc
# Summary of the method: as §1
# [18] = molecular target: Neu5Ac(a2-6)Gal(b1-4)GlcNAc(b1-2)Man(a1-3)[GlcNAc(b1-2)Man(a1-6)]Man(b1-4)GlcNAc(b1-4)GlcNAc
# Summary of the method: as §1
# [19] = molecular target: Neu5Ac(a2-6)Gal(b1-4)GlcNAc(b1-2)Man(a1-3)[GlcNAc(b1-2)Man(b1-4)GlcNAc(b1-2)Man(a1-6)]Man(b1-4)GlcNAc(b1-4)GlcNAc
# Summary of the method: as §1
# [20] = molecular target: Neu5Ac(a2-6)Gal(b1-4)GlcNAc(b1-2)Man(a1-3)[Man(a1-6)]Man(b1-4)GlcNAc(b1-4)GlcNAc
# Summary of the method: as §1
# [21] = molecular target: Neu5Ac(a2-6)Gal(b1-4)GlcNAc(b1-2)Man(a1-3)[Neu5Ac(a2-6)Gal(b1-4)GlcNAc(b1-2)Man(a1-6)]Man(b1-4)GlcNAc(b1-4)GlcNAc
# Summary of the method: as §1
# [22] = molecular target: Neu5Ac(a2-6)Gal(b1-4)GlcNAc(b1-2)Man(a1-6)Man(b1-4)GlcNAc(b1-4)GlcNAc
# Summary of the method: as §1
# [23] = molecular target: Neu5Ac(a2-6)Gal(b1-4)GlcNAc(b1-2)Man(a1-6)[Gal(b1-4)GlcNAc(b1-2)Man(a1-3)]Man(b1-4)GlcNAc(b1-4)GlcNAc
# Summary of the method: as §1
# [24] = molecular target: Neu5Ac(a2-6)Gal(b1-4)GlcNAc(b1-2)Man(a1-6)[GlcNAc(b1-2)Man(a1-3)]Man(b1-4)GlcNAc(b1-4)GlcNAc
# Summary of the method: as §1
# [25] = molecular target: Neu5Ac(a2-6)Gal(b1-4)GlcNAc(b1-2)Man(a1-6)[Man(a1-3)]Man(b1-4)GlcNAc(b1-4)GlcNAc
# Summary of the method: as §1
# [26] = molecular target: Neu5Ac(a2-6)Gal(b1-4)GlcNAc(b1-3)Gal(b1-3)GlcNAc
# Summary of the method: as §1
# [27] = molecular target: Neu5Ac(a2-6)Gal(b1-4)GlcNAc(b1-3)Gal(b1-4)GlcNAc
# Summary of the method: as §1
# [28] = molecular target: Neu5Ac(a2-6)Gal(b1-4)GlcNAc(b1-3)Gal(b1-4)GlcNAc(b1-3)Gal(b1-4)GlcNAc
# Summary of the method: as §1
# [29] = molecular target: Neu5Ac(a2-6)Gal(b1-4)GlcNAc(b1-3)Gal(b1-4)[Fuc(a1-3)]GlcNAc(b1-3)Gal(b1-4)[Fuc(a1-3)]GlcNAc
# Summary of the method: as §1
# [30] = molecular target: Neu5Ac(a2-6)Gal(b1-4)GlcNAc(b1-3)GalNAc
# Summary of the method: as §1
# [31] = molecular target: Neu5Ac(a2-6)Gal(b1-4)GlcNAc6S
# Summary of the method: as §1
# Neu5Ac(a2-6)GalNAc = molecular target: Neu5Ac(a2-6)GalNAc
# Summary of the method: as §1
# [32] = molecular target: Neu5Ac(a2-6)GalNAc(b1-4)GlcNAc
# Summary of the method: as §1
# [33] = molecular target: Neu5Ac(a2-6)GlcNAc(b1-4)GlcNAc
# Summary of the method: as §1
# [34] = molecular target: Neu5Ac(a2-6)GlcNAc(b1-4)GlcNAc(b1-4)GlcNAc
# Summary of the method: as §1
# Neu5Ac(a2-8)Neu5Ac = molecular target: Neu5Ac(a2-8)Neu5Ac
# Summary of the method: as §1
# [35] = molecular target: Neu5Ac(a2-8)Neu5Ac(a2-3)Gal(b1-4)Glc
# Summary of the method: as §1
# [36] = molecular target: Neu5Ac(a2-8)Neu5Ac(a2-3)[Gal(b1-3)GalNAc(b1-4)]Gal(b1-4)Glc
# Summary of the method: as §1
# [37] = molecular target: Neu5Ac(a2-8)Neu5Ac(a2-3)[GalNAc(b1-4)]Gal(b1-4)Glc
# Summary of the method: as §1
# [38] = molecular target: Neu5Ac(a2-8)Neu5Ac(a2-8)Neu5Ac
# Summary of the method: as §1
# [39] = molecular target: Neu5Ac(a2-8)Neu5Ac(a2-8)Neu5Ac(a2-3)Gal(b1-4)Glc
# Summary of the method: as §1
# [40] = molecular target: Neu5Ac(a2-8)Neu5Ac(a2-8)Neu5Ac(a2-3)[GalNAc(b1-4)]Gal(b1-4)Glc
# Summary of the method: as §1
# [41] = molecular target: Neu5Ac(a2-8)Neu5Ac(a2-8)Neu5Ac(a2-8)Neu5Ac(a2-3)[GalNAc(b1-4)]Gal(b1-4)Glc
# Summary of the method: as §1
# [42] = molecular target: Neu5Ac(b2-6)Gal(b1-4)GlcNAc
# Summary of the method: as §1
# Neu5Ac(b2-6)GalNAc = molecular target: Neu5Ac(b2-6)GalNAc
# Summary of the method: as §1
# [43] = molecular target: Neu5Ac9Ac(a2-3)Gal(b1-3)GlcNAc
# Summary of the method: as §1
# [44] = molecular target: Neu5Ac9Ac(a2-3)Gal(b1-4)GlcNAc
# Summary of the method: as §1
# [45] = molecular target: Neu5Ac9Ac(a2-6)Gal(b1-4)GlcNAc
# Summary of the method: as §1
# [46] = molecular target: Neu5Gc(a2-3)Gal(b1-3)GlcNAc
# Summary of the method: as §1
# [47] = molecular target: Neu5Gc(a2-3)Gal(b1-3)[Fuc(a1-4)]GlcNAc
# Summary of the method: as §1
# Neu5Gc(a2-3)Gal(b1-4)Glc = molecular target: Neu5Gc(a2-3)Gal(b1-4)Glc
# Summary of the method: as §1
# [48] = molecular target: Neu5Gc(a2-3)Gal(b1-4)GlcNAc
# Summary of the method: as §1
# [49] = molecular target: Neu5Gc(a2-3)Gal(b1-4)[Fuc(a1-3)]GlcNAc
# Summary of the method: as §1
# [50] = molecular target: Neu5Gc(a2-6)Gal(b1-4)GlcNAc
# Summary of the method: as §1
# Neu5Gc(a2-6)GalNAc = molecular target: Neu5Gc(a2-6)GalNAc
# Summary of the method: as §1
# [51] = molecular target: Neu5Gc(b2-6)Gal(b1-4)GlcNAc
# Summary of the method: as §1
binder,measurement,setting,value
B1,glycan array binding signal (z-score),[1],0.033
same,glycan array binding signal (z-score),[2],-0.185
same,glycan array binding signal (z-score),[3],0.223
same,glycan array binding signal (z-score),[4],0.027
same,glycan array binding signal (z-score),[5],0.292
same,glycan array binding signal (z-score),[6],-0.007
same,glycan array binding signal (z-score),[7],1.05
same,glycan array binding signal (z-score),[8],0.109
same,glycan array binding signal (z-score),Neu5Ac(a2-3)GalNAc,-0.529
same,glycan array binding signal (z-score),[9],-0.493
same,glycan array binding signal (z-score),[10],0.521
same,glycan array binding signal (z-score),[11],0.114
same,glycan array binding signal (z-score),[12],0.886
same,glycan array binding signal (z-score),[13],-0.275
same,glycan array binding signal (z-score),Neu5Ac(a2-6)Gal,-0.496
same,glycan array binding signal (z-score),[14],-0.151
same,glycan array binding signal (z-score),Neu5Ac(a2-6)Gal(b1-4)Glc,-0.274
same,glycan array binding signal (z-score),[15],-0.393
same,glycan array binding signal (z-score),[16],1.49
same,glycan array binding signal (z-score),[17],-0.499
same,glycan array binding signal (z-score),[18],-0.476
same,glycan array binding signal (z-score),[19],1.41
same,glycan array binding signal (z-score),[20],2.32
same,glycan array binding signal (z-score),[21],-0.222
same,glycan array binding signal (z-score),[22],0.212
same,glycan array binding signal (z-score),[23],0.316
same,glycan array binding signal (z-score),[24],-0.356
same,glycan array binding signal (z-score),[25],0.706
same,glycan array binding signal (z-score),[26],0.56
same,glycan array binding signal (z-score),[27],-0.138
same,glycan array binding signal (z-score),[28],-0.454
same,glycan array binding signal (z-score),[29],-0.231
same,glycan array binding signal (z-score),[30],2.32
same,glycan array binding signal (z-score),[31],2.46
same,glycan array binding signal (z-score),Neu5Ac(a2-6)GalNAc,-0.51
same,glycan array binding signal (z-score),[32],-0.017
same,glycan array binding signal (z-score),[33],-0.322
same,glycan array binding signal (z-score),[34],-0.448
same,glycan array binding signal (z-score),Neu5Ac(a2-8)Neu5Ac,-0.065
same,glycan array binding signal (z-score),[35],-0.514
same,glycan array binding signal (z-score),[36],0.258
same,glycan array binding signal (z-score),[37],0.064
same,glycan array binding signal (z-score),[38],0.467
same,glycan array binding signal (z-score),[39],-0.314
same,glycan array binding signal (z-score),[40],-0.165
same,glycan array binding signal (z-score),[41],-0.419
same,glycan array binding signal (z-score),[42],0.111
same,glycan array binding signal (z-score),Neu5Ac(b2-6)GalNAc,-0.558
same,glycan array binding signal (z-score),[43],-0.482
same,glycan array binding signal (z-score),[44],0.554
same,glycan array binding signal (z-score),[45],-0.471
same,glycan array binding signal (z-score),[46],-0.009
same,glycan array binding signal (z-score),[47],1.06
same,glycan array binding signal (z-score),Neu5Gc(a2-3)Gal(b1-4)Glc,1
same,glycan array binding signal (z-score),[48],-0.104
same,glycan array binding signal (z-score),[49],1.5
same,glycan array binding signal (z-score),[50],0.489
same,glycan array binding signal (z-score),Neu5Gc(a2-6)GalNAc,-0.403
same,glycan array binding signal (z-score),[51],-0.09

# From the supplement of paper PMC8728848
